A lower IC50 marks a more sensitive line; a limit (>, <) means that the fit lies beyond the doses tested. AUC is the area under the same curve over the 256-fold range up to the top dose, as a fraction; it is 1 without any effect and falls as sensitivity rises. Any top dose called inferred was calculated from the reported fits.
What follows are cell lines tested with CCn1cc(-c2ccnc3[nH]c(-c4cccc(CN(C)C)c4)cc23)c(-c2ccc(NC(=O)N(C)C)cc2)n1 [GSK1070916] (assay: Viability of human cancer cell lines after 72 h of drug (GDSC screen)). Conditions: top dose inferred.
Description: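 Human cancer cell lines in 384-well plates, medium with 10% serum, drug for 72 h over a 256-fold dose range (nine 2-fold or five 4-fold steps up to the top dose). Adherent lines were fixed and stained with the nucleic acid dye Syto60, suspension lines read with resazurin; signal relative to control wells, capped at 0 and 100%. One two-parameter sigmoid per drug and line, fitted in a mixed model over all curves with the slope shared within a line.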
Cell Line “RCM-1 (large intestine, adherent, top dose 2.56 µM)” has an AUC of 0.973 and an IC50 greater than 2560 nM.
Cell Line “RD (rhabdomyosarcoma, adherent, top dose 2.56 µM)” has an AUC of 0.937 and an IC50 greater than 2560 nM.
“REH (B-cell leukaemia, suspension, top dose 2.56 µM)” gave an AUC of 0.097 and an IC50 of less than 10 nM.
“RERF-GC-1B (stomach, adherent, top dose 2.56 µM)” was tested, and the AUC was 0.812 and the IC50 was 1570 nM.
“RERF-LC-KJ (lung adenocarcinoma, adherent, top dose 2.56 µM)” showed an AUC of 0.963 and an IC50 greater than 2560 nM.
With “RERF-LC-MS (lung adenocarcinoma, adherent, top dose 2.56 µM)” the AUC was 0.982 and the IC50 was greater than 2560 nM.
“RERF-LC-Sq1 (lung squamous cell carcinoma, adherent, top dose 2.56 µM)” gave an AUC of 0.885 and an IC50 greater than 2560 nM.
In the case of “RF-48 (stomach, adherent, top dose 2.56 µM)”, the AUC is reported as 0.882 and the IC50 is reported as greater than 2560 nM.
With “RH-1 (rhabdomyosarcoma, adherent, top dose 2.56 µM)” the AUC was 0.103 and the IC50 was 11.4 nM.
For “RH-18 (rhabdomyosarcoma, adherent, top dose 2.56 µM)”, the AUC was 0.838 and the IC50 was 2090 nM.
“RH-41 (rhabdomyosarcoma, adherent, top dose 2.56 µM)” was tested, and the AUC was 0.943 and the IC50 was greater than 2560 nM.
RKN (ovary, adherent, top dose 2.56 µM) was tested, and the AUC was 0.983 and the IC50 was greater than 2560 nM.
“RKO (large intestine, adherent, top dose 2.56 µM)” showed an AUC of 0.857 and an IC50 of 1850 nM.
For “RL95-2 (endometrium, adherent, top dose 2.56 µM)”, the AUC was 0.986 and the IC50 was greater than 2560 nM.
“RL (B-cell lymphoma, suspension, top dose 2.56 µM)” gave an AUC of 0.925 and an IC50 greater than 2560 nM.
“RMG-I (ovary, adherent, top dose 2.56 µM)” gave an AUC of 0.924 and an IC50 greater than 2560 nM.
Cell Line “RO82-W-1 (thyroid, adherent, top dose 2.56 µM)” has an AUC of 0.983 and an IC50 greater than 2560 nM.
“ROS-50 (B-cell leukaemia, suspension, top dose 2.56 µM)” gave an AUC of 0.933 and an IC50 greater than 2560 nM.
Work on “RPMI-2650 (head and neck, adherent, top dose 2.56 µM)” yielded an AUC of 0.934 and an IC50 greater than 2560 nM.
“RPMI-6666 (Hodgkin lymphoma, suspension, top dose 2.56 µM)” gave an AUC of 0.763 and an IC50 of 1100 nM.
“RPMI-7951 (melanoma, adherent, top dose 2.56 µM)” gave an AUC of 0.925 and an IC50 greater than 2560 nM.
Cell Line “RPMI-8226 (myeloma, suspension, top dose 2.56 µM)” has an AUC of 0.91 and an IC50 greater than 2560 nM.
Cell Line “RPMI-8402 (T-cell lymphoblastic leukaemia, suspension, top dose 2.56 µM)” has an AUC of 0.141 and an IC50 of 16 nM.
“RPMI-8866 (chronic myeloid leukaemia, suspension, top dose 2.56 µM)” showed an AUC of 0.988 and an IC50 greater than 2560 nM.
For “RS4-11 (leukaemia, suspension, top dose 2.56 µM)”, the AUC was 0.033 and the IC50 was less than 10 nM.
With “RT4 (bladder, adherent, top dose 2.56 µM)” the AUC was 0.838 and the IC50 was 1870 nM.
Cell Line “RT-112 (bladder, adherent, top dose 2.56 µM)” has an AUC of 0.432 and an IC50 of 103 nM.
For “RVH-421 (melanoma, adherent, top dose 2.56 µM)”, the AUC was 0.894 and the IC50 was greater than 2560 nM.
For “RXF393 (kidney, adherent, top dose 2.56 µM)”, the AUC was 0.864 and the IC50 was greater than 2560 nM.
In the case of “Raji (Burkitt lymphoma, suspension, top dose 2.56 µM)”, the AUC is reported as 0.99 and the IC50 is reported as greater than 2560 nM.
With “Ramos-2G6-4C10 (Burkitt lymphoma, suspension, top dose 2.56 µM)” the AUC was 0.873 and the IC50 was 1860 nM.
For “SAS (head and neck, adherent, top dose 2.56 µM)”, the AUC was 0.946 and the IC50 was greater than 2560 nM.
“SAT (head and neck, adherent, top dose 2.56 µM)” showed an AUC of 0.918 and an IC50 greater than 2560 nM.
“SBC-1 (small cell lung carcinoma, suspension, top dose 2.56 µM)” gave an AUC of 0.974 and an IC50 greater than 2560 nM.
In the case of “SBC-3 (small cell lung carcinoma, adherent, top dose 2.56 µM)”, the AUC is reported as 0.811 and the IC50 is reported as 1210 nM.
With “SBC-5 (small cell lung carcinoma, adherent, top dose 2.56 µM)” the AUC was 0.993 and the IC50 was greater than 2560 nM.
For “SCC90 (head and neck, adherent, top dose 2.56 µM)”, the AUC was 0.685 and the IC50 was 662 nM.
“SCC-3 (B-cell lymphoma, suspension, top dose 2.56 µM)” gave an AUC of 0.988 and an IC50 greater than 2560 nM.
In the case of “SCC-4 (head and neck, adherent, top dose 2.56 µM)”, the AUC is reported as 0.974 and the IC50 is reported as greater than 2560 nM.
